In all, about 33,000 sequences were measured (“E-score (-0.5 to 0.5)”: median about -0.043, highest 2% from about 0.37 on). This is one part of the list.
Each sequence was assayed against T1, Upc2 (UniProt Q12151) (assay: PBM E-score (8-mer binding enrichment) (E-score (-0.5 to 0.5)); higher = stronger / more preferred TF binding; most listed sequences are background and not binding sites). Settings: protein concentration: 200 nM; construct: GST-full length.
T1 sequence: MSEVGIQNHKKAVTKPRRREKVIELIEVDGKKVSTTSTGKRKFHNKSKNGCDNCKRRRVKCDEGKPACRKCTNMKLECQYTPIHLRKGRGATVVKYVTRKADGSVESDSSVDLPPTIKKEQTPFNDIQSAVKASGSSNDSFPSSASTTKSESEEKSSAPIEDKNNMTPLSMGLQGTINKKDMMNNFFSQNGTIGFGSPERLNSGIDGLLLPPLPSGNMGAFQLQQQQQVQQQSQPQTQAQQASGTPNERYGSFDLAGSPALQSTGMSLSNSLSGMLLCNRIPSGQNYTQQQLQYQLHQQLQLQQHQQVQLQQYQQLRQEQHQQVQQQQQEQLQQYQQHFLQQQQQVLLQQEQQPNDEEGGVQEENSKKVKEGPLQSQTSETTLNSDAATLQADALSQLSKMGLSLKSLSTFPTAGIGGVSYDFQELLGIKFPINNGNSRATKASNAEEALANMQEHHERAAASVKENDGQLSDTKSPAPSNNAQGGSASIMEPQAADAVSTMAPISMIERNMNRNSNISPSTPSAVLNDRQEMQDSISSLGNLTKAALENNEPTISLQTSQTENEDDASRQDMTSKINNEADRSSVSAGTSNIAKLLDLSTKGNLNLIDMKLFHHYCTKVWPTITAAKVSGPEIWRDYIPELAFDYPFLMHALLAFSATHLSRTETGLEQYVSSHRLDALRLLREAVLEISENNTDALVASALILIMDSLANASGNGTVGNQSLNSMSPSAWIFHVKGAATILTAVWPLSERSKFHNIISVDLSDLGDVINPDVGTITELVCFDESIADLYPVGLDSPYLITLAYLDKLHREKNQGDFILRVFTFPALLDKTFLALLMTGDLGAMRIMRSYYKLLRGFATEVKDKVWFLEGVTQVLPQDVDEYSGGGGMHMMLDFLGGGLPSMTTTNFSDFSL
How it was run: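 The E-score, a modified Wilcoxon-Mann-Whitney statistic, was computed by the Universal PBM Analysis Suite for every ungapped eight-base word pooled with its reverse complement. Scans behind it were normalised with masliner after bound GST-tagged yeast transcription factors were detected with fluorescent anti-GST. The proteins, at about 100-200 nM, had been applied to universal all-10-mer Agilent arrays made double-stranded by primer extension.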

| Sequence | PBM E-score |
| --- | --- |
| CGCAAGCG | 0.115 |
| GGTCGGAC | -0.0833 |
| AGTGTAGA | -0.165 |
| GACAGAGC | -0.259 |
| AACTGGGA | -0.173 |
| GCTACCCA | -0.249 |
| AAAAAGGG | -0.178 |
| AGGGAAAA | -0.113 |
| AGAGGGTC | -0.227 |
| CTGCATTC | 0.0841 |
| CAACACAC | -0.0473 |
| AAGTCGTC | 0.121 |
| ACACAACG | 0.151 |
| AACTCGCC | 0.0304 |
| ACTAGACC | -0.198 |
| ATCGGTGC | -0.154 |
| AATCATTC | -0.057 |
| ACTTACCG | 0.122 |
| CACCTGTA | -0.0954 |
| GGAGGCAC | -0.177 |
| ATACAAAG | 0.0473 |
| GCACACGA | 0.2 |
| CGAGGGCA | 0.178 |
| ATCGCTAA | 0.192 |
| ACGCATGG | -0.0496 |

| Sequence | PBM E-score |
| --- | --- |
| GATATCGC | 0.159 |
| ACGTACGG | 0.354 |
| GAATAGAA | 0.0261 |
| AGACCGAA | 0.0322 |
| CTGCTAAG | -0.316 |
| AAGCCGTA | 0.297 |
| GTGGGTCA | -0.327 |
| AAGGCAGT | -0.121 |
| AAGGCATA | -0.152 |
| GCCGCTAA | -0.191 |
| AGCTGTAC | 0.113 |
| ATTCATGG | -0.114 |
| ACCTGCAA | -0.126 |
| CAATTCTA | -0.0282 |
| CGCCAAGA | -0.191 |
| ATACATGA | -0.00058 |
| CCCATGGA | -0.308 |
| CATTGAAA | 0.0183 |
| GCACCACA | -0.157 |
| TAACGAGA | 0.391 |
| AGCACCAG | -0.202 |
| CCGCCTCC | -0.173 |
| CGACCTTA | 0.21 |
| AAGTTCTA | -0.0405 |
| AATAGGTA | 0.0405 |

| Sequence | PBM E-score |
| --- | --- |
| AAAACCAT | 0.0109 |
| AGATGTGC | 0.0112 |
| TTATTGAA | -0.0656 |
| CGGTGGCA | -0.0903 |
| ACACTGGG | -0.243 |
| ATATCTTA | -0.0407 |
| ACGCCAGG | -0.133 |
| AACTTACT | -0.0916 |
| GGAATGCC | -0.186 |
| TCATCTCA | -0.119 |
| CCGATGTC | -0.0348 |
| CAGCTAAC | -0.245 |
| CGCTTGTA | 0.118 |
| GAGTCACC | -0.222 |
| ACCTAGGA | -0.0958 |
| GCCGGCAA | -0.0326 |
| AAAGGGAG | -0.166 |
| CTATTGTA | -0.00999 |
| ACGTCCAG | -0.12 |
| AGAAGACT | -0.177 |
| ATAATTTA | 0.121 |
| TACGTTAA | 0.342 |
| AGAATCTC | 0.0559 |
| CGTACCCA | 0.376 |
| GCTCATTA | -0.102 |

| Sequence | PBM E-score |
| --- | --- |
| ATTACGGC | 0.0941 |
| GTTGGAAA | -0.103 |
| CATTTGCG | 0.0794 |
| AGTGCGAA | -0.145 |
| CTAGCCAA | -0.198 |
| AATACTCT | -0.0687 |
| ATCCCTCA | -0.209 |
| AGGCATAT | 0.0852 |
| ATAGGAAC | 0.068 |
| CCGGCCCG | -0.101 |
| GGTATACA | -0.0256 |
| AAACAGAG | -0.0281 |
| ATACCTTG | -0.125 |
| CAGAGTTA | -0.2 |
| CGACCGTA | 0.373 |
| ACGATTGA | 0.27 |
| CCACCCGA | 0.0204 |
| GGGTTCCA | -0.218 |
| ACTGCAGG | -0.156 |
| GAGCCCTC | 0.022 |
| GTGCTATA | 0.128 |
| CTTCAAGC | -0.16 |
| CCGTCACC | -0.152 |
| ACATCAGG | -0.0958 |
| AGAGGGCT | -0.325 |

| Sequence | PBM E-score |
| --- | --- |
| AACGTTCT | 0.222 |
| ATGCCATA | -0.001 |
| ACGGAAGT | 0.146 |
| CGGATGTC | 0.164 |
| AGGATACT | -0.157 |
| ACGCATTA | -0.00997 |
| AGAATAGA | -0.17 |
| ACCAGCAT | -0.171 |
| ATTTAGGG | 0.0094 |
| GATTGCTA | 0.0207 |
| AGCCCTTG | -0.26 |
| TAGATCGA | -0.0729 |
| GGGAGAAC | -0.218 |
| ATTGTTTG | -0.0476 |
| TCAGTTCA | -0.0234 |
| GTGTGAAC | 0.174 |
| AACCCTGT | -0.0902 |
| AAGGTAAC | 0.136 |
| ACTTGCAA | 0.13 |
| TGGGCACA | -0.217 |
| ATGGGCAA | 0.0979 |
| TCGACAGA | -0.0571 |
| CGCGACCC | -0.0694 |
| CAATTCTG | -0.268 |
| TGCTAAAA | -0.0918 |

| Sequence | PBM E-score |
| --- | --- |
| GCTGAATA | -0.0745 |
| AATGGTCA | -0.0859 |
| AAAAAAGC | -0.0973 |
| CACTATCC | -0.0732 |
| CCGATGGC | -0.0305 |
| GATCGGCA | -0.0334 |
| ATAACGCG | 0.153 |
| AACGCAAA | 0.104 |
| GCATTAAA | 0.0155 |
| CGGCGTAC | 0.265 |
| GATAGCGC | 0.0413 |
| AGATGGCC | -0.176 |
| ACTACTCG | 0.202 |
| CCGAAGGC | -0.125 |
| ACAAAAAT | 0.0728 |
| AACACCAT | 0.0402 |
| AGAAGTGA | -0.317 |
| ATCTTAGC | -0.0808 |
| CCACTGCC | -0.0251 |
| CTCAAGAA | -0.174 |
| GGATGAAA | -0.138 |
| CATGGAAC | -0.201 |
| CTTCTAGC | -0.178 |
| AGCAGTTA | -0.0875 |
| AATACCTC | -0.0568 |

| Sequence | PBM E-score |
| --- | --- |
| CTTCTCTA | -0.285 |
| AAGCCGCC | -0.317 |
| ACTAAGGG | -0.0941 |
| AGAGTACC | -0.189 |
| ATGATCAC | 0.044 |
| AACATATT | -0.00989 |
| GGTCATTA | -0.123 |
| ACGCCGCT | 0.118 |
| CACCGTGA | -0.216 |
| ACCCGCAG | -0.0153 |
| AAACCTAC | -0.0282 |
| CATAGTCC | -0.229 |
| AGAACCAT | 0.0254 |
| GATCTGCA | -0.163 |
| TAATTTAA | 0.0941 |
| ACGCAAGC | 0.0194 |
| TCTTCTAA | 0.0621 |
| CAGATGCG | -0.173 |
| TTCGGCAA | 0.153 |
| GTTTCATA | 0.0539 |
| CGCAACGA | 0.368 |
| ATTTCAGA | -0.159 |
